Data reported in PubChem BioAssay AID1508623 (National Center for Advancing Translational Sciences (NCATS), 2021).
Out of some 48,000 compounds screened, about 450 (0.94%) were called active. About 19% were inconclusive and are not listed. The call rests on the fitted dose curve; in most records, active means well fitted inhibition curve with a large enough effect; inconclusive means small, poorly fitted or top-dose-only effect; inactive means no such curve, though single readings can be large or run the other way. The list shows a part of the results.

Experiment: Primary qHTS for Identification of Small Molecule Inhibitors of Huntingtin Promoter Activity; further: nearly all actives have a fitted effect of over 50% in size
Conditions: HEK293 HTT promoter firefly luciferase reporter (activity 0% = vehicle and -100% = no light), 24 h; series mostly up to 57.5 µM; activity change, negative = inhibition: at the top concentration
Procedure, shortened: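 HEK293 luciferase promoter-reporter cells (2,500/well) plated 24 h, then compounds added at up to 57.5 uM final for 24 h at 37 °C. Firefly luminescence by Dual-Glo, normalized to vehicle (0%) and zero RLU (-100%).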

Activity change, negative = inhibition, inactive:
Cc1cccc(OCC(=O)NCc2ccc3c(c2)CCN3C(=O)c2ccc(Cl)cc2)c1 -17.4%, O=C(c1cccn1-c1nnc(N2CCCC2)s1)N1CCN(c2ccc(F)cc2)CC1 -11.8%, O=C(c1ccc(F)cc1)N1CCN(CCc2ccncc2)CC1 0.0875%, COc1ccc(-c2nnc(SCC(=O)Nc3ccc(C)c(Cl)c3)nc2-c2ccc(OC)c(OC)c2)cc1OC -23.2%, CC(=O)Nc1ccc(NC(=O)CN2C(=O)CCc3cc(S(=O)(=O)N4CCCCC4)ccc32)cc1 -12%, O=C(Cn1cc(SCc2ccc(Cl)cc2)c2ccccc21)N1CCCC1 -13%, O=C(Nc1ccc(F)cc1)Nc1nnc(SCC(=O)N2CCCCC2)s1 -10.3%, CC(C(=O)O)c1ccc(-c2ccccc2)c(F)c1 (configuration not stated) -10.6%, Cc1cccc(CNC(=O)CN2CC(C)Sc3ccccc32)c1 (configuration not stated) -1.06%, Cc1c(Cl)cccc1-n1nnc(-c2nc(-c3ccc4c(c3)OCO4)no2)c1C 48.2%, COc1cccc(NC2=CC(c3ccc(C(C)C)cc3)N(c3cccc(OC)c3)C2=O)c1 (configuration not stated) 29%, Cc1c(C(=O)N(Cc2cccc(Cl)c2)Cc2ccco2)oc2ccccc12 -17%, O=C(CSCc1ccc(F)cc1)NCc1ccc(F)cc1 -3.2%, Cc1cccc(CC(=O)N2CC(=O)Nc3ccc(F)cc3C2c2ccccc2)c1 (configuration not stated) -28.1%, Cc1ccc(CNC(=O)CSc2c(C(C)C)cnc3c2c(=O)n(C)c(=O)n3C)cc1 -22.3%, COc1cc(NC(=O)CCCc2nnc3n(C)c(=O)c4sccc4n23)cc(OC)c1OC -13.7%, CCc1ccccc1NC(=O)Nc1ccc2snnc2c1 -23.4%, Cc1cccc(-n2ncc(C(=O)NCc3ccc4c(c3)OCO4)c2C2CCN(C(=O)OC(C)(C)C)CC2)c1 -28.8%, O=C(CSc1nc(Nc2ccc(F)c(F)c2)c2ccccc2n1)c1ccc(Cl)cc1 -9.57%, CCCCN(C)CCNC(=O)c1cc(-c2ccc(Cl)s2)nc2ccccc12 -14.9%, CCc1ccc(NC(=O)CN2C(=O)CC(c3ccccc3)Sc3ccccc32)cc1 (configuration not stated) -35.4%, CC(C)(C)OC(=O)N1CCC(c2c(C(=O)NCCN3CCOCC3)cnn2-c2ccc(F)cc2F)CC1 -2.4%, CCOc1ccccc1Nc1nc2c(S(=O)(=O)c3ccc(C)cc3)nnn2c2ccsc12 -7.48%, CCOC(=O)c1c(-c2ccccc2)csc1NC(=O)c1nc(SCC)ncc1Cl -5.39%, CCc1cccc(C)c1NC(=O)CN1C(=O)c2cccc3cccc1c23 -12.6%, CCOc1cc(/C=C(\C#N)C(=O)Nc2ccc(OC)cc2)ccc1OCc1cc(=O)n2nc(CC)sc2n1 -1.65%, Cc1ccc2nc(CSc3nnc(NC(=O)c4ccc(C(C)(C)C)cc4)s3)cc(=O)n2c1 -0.53%, CC(=O)Nc1ccc(NC(=O)c2ncoc2-c2ccco2)cc1 11.2%, Cc1cccc(C)c1NC(=O)c1ccc(N)cc1 2.97%, COc1cccc(/C=C(\C#N)C(=O)Nc2ccc(NC(C)=O)cc2)c1OC -12.8%, Cc1oc(-c2cccc(Br)c2)nc1Cn1c(SCc2cccc(F)c2)nc2cccnc21 -24.7%, CCCCC(O)/C=C(C)/C=C/C=C/C(=O)N1CCCC1=O (configuration not stated) -0.919%, COc1ccc(NC(=O)CCS(=O)(=O)c2ccc3c(c2)n(C)c(=O)c(=O)n3C)cc1Cl -13.7%, CN1CCN(C2=Nc3cc(F)ccc3Cc3ccccc32)CC1 -5.63%, COc1ccc2c(c1)NC(c1ccc(Cl)cc1)=NC(c1cccs1)=N2 -26%, Cc1ccc(S(=O)(=O)NCCSc2nnnn2-c2ccccc2)cc1 -7.89%, CC(C)(C)c1ccc(-c2nnc(-c3ccccc3NC(=O)c3cccc(C(F)(F)F)c3)o2)cc1 -8.4%, CCCN1C(=O)C(Cc2nc3ccccc3c(=O)n2CC)c2cc(Br)ccc21 (configuration not stated) -19.4%, Cc1ccc(C)c(Cn2c(=O)n(Cc3ccccc3)c(=O)c3sc4ccccc4c32)c1 -15.6%, Cc1ccc(/C=C/c2onc(C)c2S(=O)(=O)N2CCC(C(=O)NCc3ccco3)CC2)cc1 -10.3%, Cc1ccc(CCNC(=O)c2ccc3c(c2)N(Cc2cc(C)ccc2C)C(=O)c2ccccc2S3=O)cc1 (configuration not stated) -18.1%, CCN(CC)c1ccc(NC(=O)CN2C(=O)c3cccnc3Oc3ccccc32)c(C)c1 -4.98%, COc1ccc2c(c1)NC(c1ccc(F)cc1)=NC(c1ccc(F)cc1)=N2 23.8%, COc1cccc(N2CCN(C(=O)CN3CCSc4ccc(S(=O)(=O)N(C)C)cc43)CC2)c1 -24.6%, COc1ccc(NC(=O)C2CCN(C3=NS(=O)(=O)C(c4ccc(C)c(C)c4)=C3C)CC2)cc1OC -24%, COc1ccc(CNC(=O)CCS(=O)(=O)c2cc(Br)cc3c2N(C(=O)C2CC2)CC3)cc1 -0.467%, CCCCN(Cc1ccccc1)S(=O)(=O)c1ccc2c(c1)CCN2C(=O)C1CCC1 -0.276%, O=C(Cn1nc(Cc2cccnc2)c2ccccc2c1=O)N1CCN(c2ccc(F)cc2)CC1 -19.8%, COc1ccc(Nc2ncnc3onc(C)c23)cc1Cl -20%, CCCSCCCNC(=O)C1CCCN(C(=O)c2cnn(-c3ccccc3)c2-n2cccc2)C1 (configuration not stated) -21.4%, CCN(C(=O)C(NS(=O)(=O)c1cccc2nsnc12)c1ccccc1)c1ccccc1 (configuration not stated) -23.4%, COCCCNC(=O)CCCN1C(=O)CCn2nc(-c3cn(C)c4ccccc34)cc21 -4.82%, COc1ccc(-c2ccnc3c2c(=O)n(C)c(=O)n3C)cc1OC -2.58%, COc1ccc(OC)c(CNC(=O)CCS(=O)(=O)c2ccc3c(c2)oc(=O)n3C)c1 5.01%, Cc1ccc(NC(=O)[C@H](CSCc2ccccc2)N2Cc3ccccc3C2=O)cc1 -6.33%, Cc1cc(C)c(NC(=O)CN2C(=O)c3cccnc3Oc3ccc(Cl)cc32)c(C)c1 -1.12%, Cc1ccc(C(=O)N2c3nc(-c4ccco4)nn3C3(CCCCC3)[C@@H]3CCCC[C@@H]32)cc1 -24.5%, Cc1cc(Nc2ccc(C)c(Cl)c2)n2nc(-c3ccccc3)nc2n1 -2.02%, CC1CCN(S(=O)(=O)c2cccc(C(=O)NC3CCS(=O)(=O)C3)c2)CC1 (configuration not stated) -31.1%, O=C(CCNS(=O)(=O)c1cccc2nsnc12)Nc1ccc(F)cc1 -1.66%, COc1ccc(-c2nc3cc(NC(=O)COc4ccc(F)cc4)ccc3o2)cc1 4.5%, Cc1csc2nc(-c3cccc(NC(=O)c4ccc(S(N)(=O)=O)cc4)c3)cn12 24.9%
